Laboratory results: article PMC4336329 (PLoS ONE, 2015)
In all, about 310,000 compounds went through this assay and about 2,200 (0.71%) showed an effect of 50% or more. The effect is printed as a negative number. This is one part of the list.

What follows are compounds tested against human ether-à-go-go-related gene (hERG) potassium channel (human, UniProt Q12809) (assay: primary screen, population patch clamp on CHO cells stably expressing hERG).
Chain of human ether-à-go-go-related gene (hERG) potassium channel (Q12809 whole entry, looked up): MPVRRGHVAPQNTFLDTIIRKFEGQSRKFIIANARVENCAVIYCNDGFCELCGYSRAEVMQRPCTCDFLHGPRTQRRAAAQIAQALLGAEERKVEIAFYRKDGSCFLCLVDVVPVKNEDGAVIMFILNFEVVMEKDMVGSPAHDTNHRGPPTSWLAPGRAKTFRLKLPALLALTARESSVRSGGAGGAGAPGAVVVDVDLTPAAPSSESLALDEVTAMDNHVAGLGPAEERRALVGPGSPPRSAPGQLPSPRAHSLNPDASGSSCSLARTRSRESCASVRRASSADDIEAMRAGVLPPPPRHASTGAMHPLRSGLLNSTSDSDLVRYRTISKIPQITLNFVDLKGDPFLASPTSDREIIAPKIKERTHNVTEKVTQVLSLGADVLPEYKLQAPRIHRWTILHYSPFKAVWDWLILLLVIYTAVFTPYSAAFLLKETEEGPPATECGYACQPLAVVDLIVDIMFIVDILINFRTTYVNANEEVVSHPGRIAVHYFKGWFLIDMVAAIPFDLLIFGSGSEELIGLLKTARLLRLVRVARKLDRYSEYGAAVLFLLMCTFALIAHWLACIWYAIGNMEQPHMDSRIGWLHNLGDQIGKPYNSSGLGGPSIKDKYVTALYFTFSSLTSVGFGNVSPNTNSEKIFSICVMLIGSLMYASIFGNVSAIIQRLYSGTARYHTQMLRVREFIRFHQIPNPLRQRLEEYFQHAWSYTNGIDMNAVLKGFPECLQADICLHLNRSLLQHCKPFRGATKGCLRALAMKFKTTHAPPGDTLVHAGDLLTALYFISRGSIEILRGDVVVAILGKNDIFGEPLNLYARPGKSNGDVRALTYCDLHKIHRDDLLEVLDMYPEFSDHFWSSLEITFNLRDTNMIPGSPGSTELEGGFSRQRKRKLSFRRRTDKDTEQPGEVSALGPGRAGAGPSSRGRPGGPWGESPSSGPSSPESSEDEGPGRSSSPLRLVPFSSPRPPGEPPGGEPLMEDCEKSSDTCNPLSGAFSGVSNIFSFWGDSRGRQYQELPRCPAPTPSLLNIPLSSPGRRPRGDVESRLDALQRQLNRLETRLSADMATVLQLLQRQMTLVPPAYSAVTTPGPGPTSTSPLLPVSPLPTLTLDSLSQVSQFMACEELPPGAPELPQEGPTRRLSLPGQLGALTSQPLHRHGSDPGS
With `COc1ccccc1N1CCN(C(=O)C2CCC(CNS(=O)(=O)c3ccc(NC(C)=O)cc3)CC2)CC1` (stereo not shown) the “hERG current change (%, negative = inhibition) at 1uM” value was 8.27%. For `Cc1cc(C)nc(NC(=O)Nc2ccccc2C(F)(F)F)n1`, the “hERG current change (%, negative = inhibition) at 1uM” value was 10.4%. For `C[C@@H]1CCC[C@]2(O[C@@H](CCO)C[C@H](O)[C@H]2O)O1`, the “hERG current change (%, negative = inhibition) at 1uM” value was 8.84%. With `C/C(=N\NS(=O)(=O)c1ccccc1)c1cccc(NC(=O)c2cccc(Cl)c2)c1` the “hERG current change (%, negative = inhibition) at 1uM” value was 2.61%. In the case of `CCCN1CCN(CCCNC(=O)c2ccc(CS(=O)c3ccccc3C)o2)CC1` (stereo not shown), the “hERG current change (%, negative = inhibition) at 1uM” value was 9.22%. For `Cc1ccc(S(=O)(=O)N2CCCC2C(=O)Nc2nccs2)cc1` (stereo not shown), the “hERG current change (%, negative = inhibition) at 1uM” value was 4.24%. In the case of `COc1ccc(CNc2ncc(-c3cccc([N+](=O)[O-])c3)n2C)c(OC)c1OC.O=C(O)C(=O)O`, the “hERG current change (%, negative = inhibition) at 1uM” value was -16%. In the case of `COc1cc(C(=O)N2CCN(CCCc3ccccc3)CC2)cc(OC)c1OC`, the “hERG current change (%, negative = inhibition) at 1uM” value was 3.21%. For `CCCn1c(SC(C)C(=O)NCC2CCCO2)nc2cc(Cl)ccc2c1=O` (stereo not shown), the “hERG current change (%, negative = inhibition) at 1uM” value was 11.7%. In the case of `S=c1[nH]nc(-c2cc(-c3ccsc3)n[nH]2)n1-c1cccc2ccccc12`, the “hERG current change (%, negative = inhibition) at 1uM” value was -6.75%. With `CCN(CC)C(=O)c1ccc(NC(=O)Nc2ccccc2F)cc1` the “hERG current change (%, negative = inhibition) at 1uM” value was -7.85%. With `Cc1ccc(C(=O)N2CCCCCC2)cc1Br` the “hERG current change (%, negative = inhibition) at 1uM” value was 5.77%. For `Cc1ccc(CNC(=O)C2CCC(=O)N(Cc3ccccc3F)C2)s1` (stereo not shown), the “hERG current change (%, negative = inhibition) at 1uM” value was 3.61%. In the case of `CC(C)C(=O)Nc1c2c(nn1-c1ccccc1)CSC2`, the “hERG current change (%, negative = inhibition) at 1uM” value was 11.8%. `CN(CCOc1ccc(-c2ccn(S(=O)(=O)c3ccc(Cl)cc3)n2)cc1)c1ccccn1` was tested, and the “hERG current change (%, negative = inhibition) at 1uM” value was 17.3%. For `COc1ccccc1OCC(=O)Nc1ccc(O)cc1C(=O)O`, the “hERG current change (%, negative = inhibition) at 1uM” value was 5.8%. For `CC1(C(=O)NCC2CC2)C=CC2(CCCCC2)N1C(=O)c1ccccc1` (stereo not shown), the “hERG current change (%, negative = inhibition) at 1uM” value was -9.68%. `COc1ccc(-c2c(-c3cc(OC)cc(OC)c3)n(C)c3ccc(-c4cccc5[nH]ccc45)cc23)cc1` was tested, and the “hERG current change (%, negative = inhibition) at 1uM” value was 11.5%. In the case of `COc1ccccc1N1CCN(C(=O)/C=C/c2cccc([N+](=O)[O-])c2)CC1`, the “hERG current change (%, negative = inhibition) at 1uM” value was 5.45%. For `COc1ccc(Nc2nc(C)cc(-c3cc(-c4ccccc4)on3)n2)cc1`, the “hERG current change (%, negative = inhibition) at 1uM” value was 8.73%. For `CN(C(=O)c1ccc(NC(=O)Cc2ccccc2)cc1)c1ccccc1`, the “hERG current change (%, negative = inhibition) at 1uM” value was 5.65%. In the case of `Cc1nc(Cl)c(C(=O)NCc2ccccc2)c(C)c1Cl`, the “hERG current change (%, negative = inhibition) at 1uM” value was 6.15%. With `CC1Cc2ccccc2N1C(=O)COC(=O)CSc1ccc(F)cc1` (stereo not shown) the “hERG current change (%, negative = inhibition) at 1uM” value was 0.833%. In the case of `CCOc1ccccc1NC(=O)c1ccc([N+](=O)[O-])cc1`, the “hERG current change (%, negative = inhibition) at 1uM” value was 12.6%. `CCC1Nc2ncnc(N3CCCCC3)c2N(Cc2ccc(Br)cc2)C1=O.O=C(O)C(F)(F)F` (stereo not shown) was tested, and the “hERG current change (%, negative = inhibition) at 1uM” value was -0.0934%. `O=C(c1cc(F)ccc1F)C1CCCN(C(=O)c2ccc(F)cc2Cl)C1` (stereo not shown) was tested, and the “hERG current change (%, negative = inhibition) at 1uM” value was -5.11%. For `Cc1oc2c(c(C)cc3oc(=O)c(CC(=O)NCC(=O)NCC(=O)O)c(C)c32)c1C`, the “hERG current change (%, negative = inhibition) at 1uM” value was 12.5%. `CC(C)CNC(=S)NNC(=O)c1nn(C)cc1Cl` was tested, and the “hERG current change (%, negative = inhibition) at 1uM” value was 3.49%. For `CCn1c(=O)c(C(=O)NCCCO)c(O)c2ccccc21`, the “hERG current change (%, negative = inhibition) at 1uM” value was 2.97%. In the case of `CN(c1ccccc1)S(=O)(=O)c1cccc(NC(=O)CN2CCCc3ccccc32)c1`, the “hERG current change (%, negative = inhibition) at 1uM” value was 7.66%. In the case of `Cc1c(NC2=CC(=O)CC(C)(C)C2)c(=O)n(-c2ccccc2)n1C`, the “hERG current change (%, negative = inhibition) at 1uM” value was 4.34%. In the case of `COc1ccc(/C=C\c2onc(C)c2S(=O)(=O)N2CCC(C(=O)NCc3ccco3)CC2)cc1`, the “hERG current change (%, negative = inhibition) at 1uM” value was 6.18%. With `O=C(COC(=O)Cc1ccsc1)Nc1ccc(S(=O)(=O)N2CCOCC2)cc1` the “hERG current change (%, negative = inhibition) at 1uM” value was 11.8%. `Clc1ccc(-n2nnnc2-c2cnc3ccc(Cl)cc3c2-c2ccccc2)cc1` was tested, and the “hERG current change (%, negative = inhibition) at 1uM” value was 5.7%. In the case of `C=CCNC(=O)c1ccc(-c2nc3ccccc3nc2-c2ccccc2)cc1`, the “hERG current change (%, negative = inhibition) at 1uM” value was 29.9%. With `Cc1cc(C(=O)COC(=O)CCc2nc3ccccc3s2)c(C)n1C` the “hERG current change (%, negative = inhibition) at 1uM” value was 5.36%. In the case of `O=C(NCc1ccc(F)cc1)c1ccc2c(c1)S(=O)(=O)c1ccccc1C2=O`, the “hERG current change (%, negative = inhibition) at 1uM” value was 8.86%. In the case of `O=c1c2[nH]c3ccc(Br)cc3c2ncn1CCCn1ccnc1`, the “hERG current change (%, negative = inhibition) at 1uM” value was -46.8%. With `O=C(NC1CC2CCCC(C1)N2C(=O)NC1CCCCC1)c1ccccc1` (stereo not shown) the “hERG current change (%, negative = inhibition) at 1uM” value was 7.36%. In the case of `FC(F)(F)c1cc(C(F)(F)F)c2ccc(N3CCN(c4ccccc4)CC3)nc2n1`, the “hERG current change (%, negative = inhibition) at 1uM” value was 5.19%. For `Cc1cc(C)n(CCNC(=O)c2ccco2)n1`, the “hERG current change (%, negative = inhibition) at 1uM” value was 12.3%. With `COc1ccccc1CCC(=O)OCC(=O)Nc1cc(S(=O)(=O)N2CCOCC2)ccc1C` the “hERG current change (%, negative = inhibition) at 1uM” value was 2.99%. With `COc1ccc(CN2CC(=O)N3[C@H]4c5ccc(OC)cc5OC[C@@H]4[C@H](c4ccccc4)[C@]3(C)C2=O)cc1` the “hERG current change (%, negative = inhibition) at 1uM” value was 11.3%.
